Data taken from the supplement of paper PMC8728848.
The list shows a part of the results.

Assays:
Experiment in all cases: glycan array binding signal (z-score within array); higher = stronger binding
Conditions in all cases: glycan notation: IUPAC condensed, linker removed
[1] = target: Neu5Ac(a2-3)Gal(b1-3)]Neu5Ac(a2-3)Gal(b1-4)]GlcNAc
Procedure, shortened: (§1)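 Columns mapping to the same glycan were averaged after glycan names were converted to IUPAC-condensed notation. The data come from 3228 arrays in the Consortium for Functional Glycomics database, limited to those with an available protein sequence. Binding is reported as a within-array Z-score averaged across arrays of one protein sequence and across linkers.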

Neu5Ac(a2-3)Gal(b1-4)Glc = target: Neu5Ac(a2-3)Gal(b1-4)Glc
Procedure, shortened: as §1

[2] = target: Neu5Ac(a2-3)Gal(b1-4)GlcNAc
Procedure, shortened: as §1

[3] = target: Neu5Ac(a2-3)Gal(b1-4)GlcNAc(b1-2)Man
Procedure, shortened: as §1

[4] = target: Neu5Ac(a2-3)Gal(b1-4)GlcNAc(b1-2)Man(a1-3)[GlcNAc(b1-4)][Neu5Ac(a2-3)Gal(b1-4)GlcNAc(b1-2)Man(a1-6)]Man(b1-4)GlcNAc(b1-4)GlcNAc
Procedure, shortened: as §1

[5] = target: Neu5Ac(a2-3)Gal(b1-4)GlcNAc(b1-2)Man(a1-3)[Neu5Ac(a2-3)Gal(b1-4)GlcNAc(b1-2)Man(a1-6)]Man(b1-4)GlcNAc(b1-4)GlcNAc
Procedure, shortened: as §1

[6] = target: Neu5Ac(a2-3)Gal(b1-4)GlcNAc(b1-2)Man(a1-3)[Neu5Ac(a2-3)Gal(b1-4)GlcNAc(b1-2)Man(a1-6)]Man(b1-4)GlcNAc(b1-4)[Fuc(a1-6)]GlcNAc
Procedure, shortened: as §1

[7] = target: Neu5Ac(a2-3)Gal(b1-4)GlcNAc(b1-2)Man(a1-3)[Neu5Ac(a2-6)Gal(b1-4)GlcNAc(b1-2)Man(a1-6)]Man(b1-4)GlcNAc(b1-4)GlcNAc
Procedure, shortened: as §1

[8] = target: Neu5Ac(a2-3)Gal(b1-4)GlcNAc(b1-2)[Neu5Ac(a2-3)Gal(b1-4)GlcNAc(b1-4)]Man(a1-3)[GlcNAc(b1-4)][Neu5Ac(a2-3)Gal(b1-4)GlcNAc(b1-2)[Neu5Ac(a2-3)Gal(b1-4)GlcNAc(b1-6)]Man(a1-6)]Man(b1-4)GlcNAc(b1-4)GlcNAc
Procedure, shortened: as §1

[9] = target: Neu5Ac(a2-3)Gal(b1-4)GlcNAc(b1-2)[Neu5Ac(a2-3)Gal(b1-4)GlcNAc(b1-4)]Man(a1-3)[GlcNAc(b1-4)][Neu5Ac(a2-3)Gal(b1-4)GlcNAc(b1-4)Man(a1-6)]Man(b1-4)GlcNAc(b1-4)GlcNAc
Procedure, shortened: as §1

[10] = target: Neu5Ac(a2-3)Gal(b1-4)GlcNAc(b1-2)[Neu5Ac(a2-3)Gal(b1-4)GlcNAc(b1-6)]Man(a1-6)[Neu5Ac(a2-3)Gal(b1-4)GlcNAc(b1-2)Man(a1-3)]Man(b1-4)GlcNAc(b1-4)GlcNAc
Procedure, shortened: as §1

[11] = target: Neu5Ac(a2-3)Gal(b1-4)GlcNAc(b1-2)[Neu5Ac(a2-3)Gal(b1-4)GlcNAc(b1-6)]Man(a1-6)[Neu5Ac(a2-3)Gal(b1-4)GlcNAc(b1-2)Man(a1-3)][GlcNAc(b1-4)]Man(b1-4)GlcNAc(b1-4)GlcNAc
Procedure, shortened: as §1

[12] = target: Neu5Ac(a2-3)Gal(b1-4)GlcNAc(b1-3)Gal
Procedure, shortened: as §1

[13] = target: Neu5Ac(a2-3)Gal(b1-4)GlcNAc(b1-3)Gal(b1-3)GlcNAc
Procedure, shortened: as §1

[14] = target: Neu5Ac(a2-3)Gal(b1-4)GlcNAc(b1-3)Gal(b1-4)GlcNAc
Procedure, shortened: as §1

[15] = target: Neu5Ac(a2-3)Gal(b1-4)GlcNAc(b1-3)Gal(b1-4)GlcNAc(b1-2)Man(a1-3)[Neu5Ac(a2-3)Gal(b1-4)GlcNAc(b1-3)Gal(b1-4)GlcNAc(b1-2)Man(a1-6)]Man(b1-4)GlcNAc(b1-4)GlcNAc
Procedure, shortened: as §1

[16] = target: Neu5Ac(a2-3)Gal(b1-4)GlcNAc(b1-3)Gal(b1-4)GlcNAc(b1-3)Gal(b1-4)GlcNAc
Procedure, shortened: as §1

[17] = target: Neu5Ac(a2-3)Gal(b1-4)GlcNAc(b1-3)Gal(b1-4)GlcNAc(b1-3)Gal(b1-4)GlcNAc(b1-2)Man(a1-3)[Neu5Ac(a2-3)Gal(b1-4)GlcNAc(b1-3)Gal(b1-4)GlcNAc(b1-3)Gal(b1-4)GlcNAc(b1-2)Man(a1-6)]GalNAc
Procedure, shortened: as §1

[18] = target: Neu5Ac(a2-3)Gal(b1-4)GlcNAc(b1-3)Gal(b1-4)GlcNAc(b1-3)GalNAc
Procedure, shortened: as §1

[19] = target: Neu5Ac(a2-3)Gal(b1-4)GlcNAc(b1-3)Gal(b1-4)GlcNAc(b1-3)[Neu5Ac(a2-3)Gal(b1-4)GlcNAc(b1-3)Gal(b1-4)GlcNAc(b1-6)]GalNAc
Procedure, shortened: as §1

[20] = target: Neu5Ac(a2-3)Gal(b1-4)GlcNAc(b1-3)Gal(b1-4)GlcNAc(b1-6)[Gal(b1-3)]GalNAc
Procedure, shortened: as §1

[21] = target: Neu5Ac(a2-3)Gal(b1-4)GlcNAc(b1-3)Gal(b1-4)[Fuc(a1-3)]GlcNAc
Procedure, shortened: as §1

[22] = target: Neu5Ac(a2-3)Gal(b1-4)GlcNAc(b1-3)GalNAc
Procedure, shortened: as §1

[23] = target: Neu5Ac(a2-3)Gal(b1-4)GlcNAc(b1-3)[Neu5Ac(a2-3)Gal(b1-4)GlcNAc(b1-6)]GalNAc
Procedure, shortened: as §1

[24] = target: Neu5Ac(a2-3)Gal(b1-4)GlcNAc(b1-6)GalNAc
Procedure, shortened: as §1

[25] = target: Neu5Ac(a2-3)Gal(b1-4)GlcNAc(b1-6)[Gal(b1-3)]GalNAc
Procedure, shortened: as §1

[26] = target: Neu5Ac(a2-3)Gal(b1-4)GlcNAc(b1-6)[Neu5Ac(a2-3)Gal(b1-3)]GalNAc
Procedure, shortened: as §1

[27] = target: Neu5Ac(a2-3)Gal(b1-4)GlcNAc6S
Procedure, shortened: as §1

[28] = target: Neu5Ac(a2-3)Gal(b1-4)[Fuc(a1-3)]GlcNAc
Procedure, shortened: as §1

[29] = target: Neu5Ac(a2-3)Gal(b1-4)[Fuc(a1-3)]GlcNAc(b1-2)Man
Procedure, shortened: as §1

[30] = target: Neu5Ac(a2-3)Gal(b1-4)[Fuc(a1-3)]GlcNAc(b1-3)Gal
Procedure, shortened: as §1

[31] = target: Neu5Ac(a2-3)Gal(b1-4)[Fuc(a1-3)]GlcNAc(b1-3)Gal(b1-4)GlcNAc
Procedure, shortened: as §1

[32] = target: Neu5Ac(a2-3)Gal(b1-4)[Fuc(a1-3)]GlcNAc(b1-3)Gal(b1-4)[Fuc(a1-3)]GlcNAc(b1-3)Gal(b1-4)[Fuc(a1-3)]GlcNAc
Procedure, shortened: as §1

[33] = target: Neu5Ac(a2-3)Gal(b1-4)[Fuc(a1-3)]GlcNAc(b1-3)GalNAc
Procedure, shortened: as §1

[34] = target: Neu5Ac(a2-3)Gal(b1-4)[Fuc(a1-3)]GlcNAc(b1-6)[Gal(b1-3)]GalNAc
Procedure, shortened: as §1

[35] = target: Neu5Ac(a2-3)Gal(b1-4)[Fuc(a1-3)]GlcNAc(b1-6)[Neu5Ac(a2-3)Gal(b1-3)]GalNAc
Procedure, shortened: as §1

[36] = target: Neu5Ac(a2-3)Gal(b1-4)[Fuc(a1-3)]GlcNAc6S
Procedure, shortened: as §1

[37] = target: Neu5Ac(a2-3)Gal6S(b1-4)GlcNAc
Procedure, shortened: as §1

B1: Als1 (Candida albicans), P46590 (protein)
chain: KTITGVFDSFNSLTWSNAANYAFKGPGYPTWNAVLGWSLDGTSANPGDTFTLNMPCVFKYTTSQTSVDLTADGVKYATCQFYSGEEFTTFSTLTCTVNDALKSSIKAFGTVTLPIAFNVGGTGSSTDLEDSKCFTAGTNTVTFNDGDKDISIDVEFEKSTVDPSGYLYASRVMPSLNKVTTLFVAPQCENGYTSGTMGFSSSNGDVAIDCSNIHIGITKGLNDWNYPVSSESFSYTKTCTSNGIQIKYQNVPAGYRPFIDAYISATDVNQYTLAYTNDYTCAGSRLQSKPFTLRWTGYKNSDAGSNGIVIVATTRTVTDSTTAVTTLPFNPSVDKTKTIEILQPIPTTTITTSYVGVTTSYLTKTAPIGETATVIVDVPYHTTTTVTSEWTGTITTTTTRTNPTDSIDTVVVQVP
[1]
  glycan array binding signal (z-score): 0.517
Neu5Ac(a2-3)Gal(b1-4)Glc
  glycan array binding signal (z-score): -0.414
[2]
  glycan array binding signal (z-score): -0.137
[3]
  glycan array binding signal (z-score): 0.357
[4]
  glycan array binding signal (z-score): -0.627
[5]
  glycan array binding signal (z-score): -0.437
[6]
  glycan array binding signal (z-score): -0.027
[7]
  glycan array binding signal (z-score): -0.509
[8]
  glycan array binding signal (z-score): 0.415
[9]
  glycan array binding signal (z-score): -0.662
[10]
  glycan array binding signal (z-score): -0.185
[11]
  glycan array binding signal (z-score): 0.321
[12]
  glycan array binding signal (z-score): -0.274
[13]
  glycan array binding signal (z-score): -0.688
[14]
  glycan array binding signal (z-score): -0.497
[15]
  glycan array binding signal (z-score): -0.331
[16]
  glycan array binding signal (z-score): -0.784
[17]
  glycan array binding signal (z-score): 3.84
[18]
  glycan array binding signal (z-score): -0.244
[19]
  glycan array binding signal (z-score): 0.139
[20]
  glycan array binding signal (z-score): -0.152
[21]
  glycan array binding signal (z-score): -0.466
[22]
  glycan array binding signal (z-score): -0.26
[23]
  glycan array binding signal (z-score): -0.445
[24]
  glycan array binding signal (z-score): -0.544
[25]
  glycan array binding signal (z-score): -0.412
[26]
  glycan array binding signal (z-score): -0.097
[27]
  glycan array binding signal (z-score): -0.321
[28]
  glycan array binding signal (z-score): -0.262
[29]
  glycan array binding signal (z-score): 1.01
[30]
  glycan array binding signal (z-score): -0.45
[31]
  glycan array binding signal (z-score): -0.379
[32]
  glycan array binding signal (z-score): -0.455
[33]
  glycan array binding signal (z-score): 0.938
[34]
  glycan array binding signal (z-score): 1.95
[35]
  glycan array binding signal (z-score): 2.16
[36]
  glycan array binding signal (z-score): 0.208
[37]
  glycan array binding signal (z-score): -0.132
